Assay results: patent US6818619B2, “Chimeric natriuretic peptides” (Mayo Foundation for Medical Education and Research, priority 1999, dated 2004)

Test system: arteries and veins
Set-up: species or system dog
Conditions: as compared to ANP and CNP
Protocol: The results obtained are expressed as the means±SEM. In organ chamber studies, n equals the number of dogs from which rings were taken. […] In rat studies, the data were analyzed using ANOVA for repeated measures followed by Fisher's least significant difference test when appropriate within the group. Data between groups were analyzed by Student's unpaired t-test. Statistical significance was determined at p<0.05.

In the case of vasonatrin peptide [VNP], the vasorelaxing potency was “more potent”.
